Assay results as given in PubChem BioAssay AID493208 (National Center for Advancing Translational Sciences (NCATS), 2011).
Hit rate of the full screen: of about 44,000 compounds, about 340 (0.77%) were called active. Not shown: some 5% with an inconclusive outcome. The call rests on the fitted dose curve; in most records, active means well fitted inhibition curve with a large enough effect; inconclusive means small, poorly fitted or top-dose-only effect; inactive means flat fitted curve, though single readings scatter. The list shows a part of the results.

Assay: Acumen qHTS Assay for Inhibitors of the mTORC1 Signaling Pathway in MEF (Tsc2-/-, p53-/-) Cells: Sytravon; further: nearly all actives have a fitted effect of over 50% in size
Settings: phospho-rpS6 immunofluorescence/PI, 24 h; series mostly up to 38.3 µM; activity change, negative = inhibition: at the top concentration
Summary of the method: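 Read-out: phospho-S6 Alexa-488 intensity over PI intensity per well, scored as % active cells using thresholds from rapamycin (7.5 nM) and DMSO controls. Tsc2-/-, p53-/- MEFs exposed to compound for 24 h; PI cell count recorded as viability.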

Activity change, negative = inhibition, inactive:
CC(C)COc1ccc(C(=O)Nc2ccc(S(=O)(=O)Nc3ncccn3)cc2)cc1 -14%
CCC(C(=O)Nc1cccc(Cl)c1C)n1nc(-c2ccc(C)cc2)ccc1=O (stereo unspecified) -12%
CCCc1nc2sc3c(N4CCC(C)CC4)ncnc3c2c2c1CCCC2 -2.66%
CC(C)COc1cccc(C(=O)Nc2ccc(-c3nc4ncccc4o3)cc2)c1 2.82%
CC1CCN(C(=O)Cn2cc(SCC(=O)NCc3ccccc3Cl)c3ccccc32)CC1 -14.9%
CCC(=O)Nc1cc(C)c(O)c(-c2nc3ncccc3o2)c1 -1.34%
Cc1cccc(N2CCN(S(=O)(=O)c3ccc4c(c3)CCCN4C(=O)C3CCC3)CC2C)c1 (stereo unspecified) 0.128%
Cc1ccc(Cl)cc1NC(=O)C(C)n1nnc2sc3c(c2c1=O)CCCC3 (stereo unspecified) 4.52%
Cn1c(=O)n(-c2ccc(Br)cc2F)c(=O)c2sc3ccccc3c21 0.425%
COc1ccc(Cn2c(=O)[nH]c3cc(C(=O)N4CCN(c5cccc(Cl)c5)CC4)ccc3c2=O)cc1 9.08%
CCCN1C(C(=O)c2ccccc2)=C(OC(=O)COc2ccccc2)c2ccccc2S1(=O)=O -12%
O=C(NC1CCCCCC1)c1ccc2c(c1)sc1nc(-c3ccc(F)cc3)cn12 -15.9%
CCOc1ccc(NC(=O)CN2C(=O)C(c3ccccc3)=NC23CCC(C)CC3)cc1 (stereo unspecified) -2.29%
CCOC(=O)c1ccc(CN(Cc2ccc(F)cc2)S(=O)(=O)c2cc(C(=O)Nc3cccc(C(F)(F)F)c3)ccc2F)cc1 12.7%
COc1cc2c(=O)c(S(=O)(=O)c3ccc(F)cc3)cn(Cc3ccc(Cl)cc3)c2cc1OC -11.8%
O=C(Nc1ccc(C(=O)OCc2cc(=O)n3c4c(sc3n2)CCCC4)cc1)c1ccccc1 4.9%
CC(=O)c1ccc(NC(=O)c2noc3c2CCc2ccccc2-3)cc1 8.16%
COc1ccc(C2C(C(N)=O)=C(C)Nc3nc(CCCO)nn32)c(OC)c1 (stereo unspecified) -4.07%
COc1ccc(CCNC(=O)c2cnc3ccc(C)cn3c2=O)cc1 -6.75%
CCCS(=O)(=O)c1c(S(=O)(=O)CCC)c2cc(CC)ccn2c1C(=O)c1ccc(OC)cc1 -0.967%
COc1cccc(Cn2nnc(C(=O)Nc3cc(C)ccc3C)c2N)c1 -8.22%
CCOc1ccc(NC(=O)N2CCC(C(N)=O)(N3CCCCC3)CC2)cc1 -0.014%
CCOc1ccccc1CNC(=O)Cn1c(-c2ccccc2)cc(C(C)=O)c1C 0.396%
O=C(CCc1nc(-c2cccs2)no1)Nc1ccccc1[N+](=O)[O-] 0.0282%
O=C(Cn1c(=O)n(Cc2ccccc2)c(=O)c2sc3ccccc3c21)NCc1ccccc1Cl -11.7%
O=C(NC1CC(=O)N(c2cccc(F)c2)C1)c1ccc(S(=O)(=O)N2CCCC2)cc1 (stereo unspecified) -11.7%
Cc1ccn2c(=O)c(C(=O)NCCc3ccccc3)c(O)nc2c1 -5.89%
Cc1ccc2nc(NC(=O)CSc3nccn3Cc3ccc(Cl)cc3)sc2c1 1.81%
O=C(Nc1cccc(Cl)c1)N1CCSc2ccccc21 0.428%
CSc1ccc(CCNC(=O)c2cnn(-c3ccccc3)c2-n2cccc2)cc1 -1.29%
Cc1cccc(NC(=O)c2cc(S(=O)(=O)N3CCc4ccccc43)ccc2F)c1C 5.24%
COCCCNC(=O)CS(=O)Cc1nc(-c2cccc(C)c2)oc1C (stereo unspecified) 0.863%
COc1ccc(OC)c(-c2cc(C(=O)NCCc3ccccc3)c3c(-c4ccc(C)cc4)[nH]nc3n2)c1 -3.91%
CCOC(=O)c1cnc2c(ccc3ccccc32)c1Nc1ccccc1OCC 3.82%
CC(NC(=O)CCCC1=NS(=O)(=O)c2ccccc2N1)c1ccccc1 (stereo unspecified) 0.596%
CCOc1ccccc1NC(=O)c1c(NC(=O)COc2ccccc2)sc2c1CCCCC2 -3.98%
CCCn1cc(S(=O)(=O)c2ccccc2)c(=O)c2cc(F)c(N3CCCCC3)cc21 -0.086%
Cc1ccc(N2C(=O)CSC23C(=O)N(CC(=O)NCCc2ccccc2)c2ccccc23)cc1C (stereo unspecified) 3.05%
Cc1ccc(NC(=O)C2CCN(c3nc4ccccc4nc3C(F)(F)F)CC2)cc1F 4.54%
COc1ccc(C(=O)Nc2nnc(S(=O)(=O)N3CCCCCC3)s2)cc1OC 3.86%
CCOC(=O)c1cc(-c2ccccc2)n(-c2cccc(C(=O)Nc3cccc(F)c3)c2)c1C -0.0302%
Cc1ccc(CNC(=O)CCc2c(C)nc3c(c(C)nn3-c3ccccc3)c2C)cc1 -3.77%
COc1ccc(C(=O)c2oc3ccccc3c2NC(=O)COc2ccccc2)cc1 -1.16%
COc1ccc(CCNC(=O)c2sc3nc4n(c(=O)c3c2C)CCCC4)cc1OC -3.86%
CCc1cccc(C)c1NC(=O)CC1Oc2ccc(C)cc2NC1=O (stereo unspecified) 0.684%
CC(C)n1c(=N)c(C(=O)NCc2cccnc2)cc2c(=O)n3ccccc3nc21 -2.59%
O=C(COc1ccc(Cl)cc1)OCc1cc(=O)n2nc(-c3cccs3)sc2n1 1.63%
O=C(Cn1c(=O)n(Cc2ccco2)c(=O)c2ccc(C(=O)NC3CCCC3)cc21)Nc1ccc(F)cc1 -0.116%
COc1ccc(-n2nc(C(=O)NCCc3ccc(Cl)cc3)c3c4ccccc4n(C)c3c2=O)cc1Cl -1.79%
Cc1cc(C)n(CC(=O)Nc2ccc(F)c(F)c2)c(=O)c1C#N 17.7%
N#C/C(=C\c1ccc(-c2ccccc2C(=O)O)o1)c1nc2ccccc2[nH]1 11.8%
O=C(Cn1nc2c(cc1=O)CCCC2)Nc1ccc(F)cc1F -0.676%
COc1ccc(CCNC(=O)c2c(O)nc3cc(C)ccn3c2=O)cc1OC 0.293%
Cc1cc(-c2ccc(C)c(S(=O)(=O)N3CCCC(C)C3)c2)on1 (stereo unspecified) 4.16%
CCc1ccc(CNC(=O)c2ccc(CSc3nc4ccncc4n3Cc3ccc(OC)cc3)cc2)cc1 0.566%
COc1ccc(N2CCN(C(=O)Cc3coc4ccc(C)cc34)CC2)cc1 -10%
O=S(=O)(Nc1cccc(Cl)c1)c1ccc2[nH]c3c(c2c1)CCCCCC3 -17.9%
CC(C)Oc1cccc(NC(=O)C2CCN(S(=O)(=O)Cc3ccccc3)CC2)c1 4.26%
COc1ccc(C)cc1NC(=O)C(=O)NCCc1sc(-c2ccc(Cl)cc2)nc1C -1.86%
CCOC(=O)c1c(NC(C)=O)c2c3c(sc2n1Cc1nc(-c2ccc(Cl)cc2)oc1C)CCCC3 3.5%
CCc1noc(-c2ccc(NC(C)c3ccccc3)c([N+](=O)[O-])c2)n1 (stereo unspecified) -18.4%
CCN(CC)C(=O)C1=C(C)Nc2nc3ccccc3n2C1c1ccc(Br)cc1 (stereo unspecified) 2.02%
CC(=O)c1cccc(NC(=O)CCS(=O)(=O)c2cc3c(cc2C)NC(=O)CO3)c1 4.67%
CCOC(=O)c1c(S(=O)(=O)N2CCC(C(=O)N3CCN(c4cccc(C)c4C)CC3)CC2)c(C)n(C)c1C -0.26%
CCC(CC)C(=O)Nc1cc(-c2cn3cccnc3n2)ccc1OC -1.37%
CCOc1ccccc1C1N=C(N)Nc2nc3ccccc3n21 (stereo unspecified) -9.41%
Cc1nc(N2CCCC2)c2c(C(=O)Nc3ccc(C)c(Cl)c3)c(C)oc2n1 3.39%
Cc1ccccc1-c1nnc(CN2CCN(c3cc(Cl)ccc3C)CC2)o1 1.23%
O=C(CSc1nnc(COc2ccc(Cl)cc2)o1)Nc1ccccc1 -5.23%
CCOc1ccc(C(=O)Nc2c(C(=O)c3ccccc3)oc3ccccc23)cc1 3.54%
COc1ccc(C(CC(=O)Nc2ccc(C)cn2)N2Cc3ccccc3C2=O)cc1OC (stereo unspecified) -9.09%
CCOC(=O)N1CCC(NC(=O)c2ccc3c(c2)N(Cc2cccc(C)c2)C(=O)c2ccccc2S3(=O)=O)CC1 -10.7%
COc1cccc(CNC(=O)c2nnn(CC(=O)Nc3cc(Cl)ccc3C)c2N)c1 -1.87%
O=S(=O)(c1ccc(F)cc1)N1CCC(Oc2ccc(-n3cnnn3)cc2)CC1 0.841%
Cc1cccc(N2C(=O)C(CC(=O)Nc3cccc(F)c3)N(Cc3cccs3)C2=O)c1 (stereo unspecified) 0%
CCC(=O)N1CCc2cc(Br)cc(S(=O)(=O)CCC(=O)Nc3cccc(CC)c3)c21 2.55%
Cc1ccc(-c2ccc(=O)n(Cc3ccc(F)cc3)n2)cc1 1.66%
COc1cccc(CNC(=O)Cn2c(=O)oc3cc(S(=O)(=O)N4CCCC4)ccc32)c1 -0.766%
Cc1ccc(CN2CCSc3ccc(C(=O)Nc4ccc(Cl)cc4)cc32)cc1 -19.1%
CCCN(CCC)CCCNC(=O)c1cc2c(=O)oc3ccc(C)cc3c2s1 -14.3%
CC(NC(=O)C1(c2cccs2)CCOCC1)c1ccccc1 (stereo unspecified) -0.0434%
CCn1cc(C(=O)N2CCN(c3cc(Cl)ccc3C)CC2)c2cc(OC)c(OC)cc2c1=O -17.4%
CCOc1ccc(CCNC(=O)CCCc2cc(-c3ccc(OCC)cc3)on2)cc1 -0.787%
Cc1nc2cccnc2n1C1CCN(S(=O)(=O)c2ccc(Cl)cc2)CC1 9.92%
O=C(Cc1csc2ccccc12)NCc1cccc(Br)c1 2.17%
Cc1ccccc1CN1CCC(CNc2ncnc3onc(-c4ccc(Cl)cc4)c23)CC1 -0.814%
CN(C)S(=O)(=O)n1cc(/C=C(\NC(=O)c2ccccc2F)C(=O)NCCCn2ccnc2)c2ccccc21 -7.93%
Cc1ccc(NC(=O)C2CCCN(c3ncnc4c3nc3n4CCCCC3)C2)cc1F (stereo unspecified) 0.931%
CCOc1ccc(NC(=O)c2c(NC(=O)c3ccco3)sc3c2CCC(C(C)(C)C)C3)cc1 (stereo unspecified) -11%
O=C(O)CC(NS(=O)(=O)c1ccc(Cl)s1)c1ccccc1 (stereo unspecified) 6.46%
COc1cc(NS(=O)(=O)c2ccc(NC(=O)C(C)Oc3ccc(Cl)cc3Cl)cc2)nc(OC)n1 (stereo unspecified) 3.98%
O=C(Nc1cccc(C(F)(F)F)c1)C1CCN(c2nnc(-n3cccc3)s2)CC1 0.878%
COc1ccc(Nc2c(-c3ccc(Cl)cc3)nc3cnccn23)cc1OC 0.532%
Cc1cc(C)cc(Oc2coc3c(CN4CCN(C)CC4)c(O)ccc3c2=O)c1 -5.49%
O=C(NCc1ccccc1Cl)C1CCN(S(=O)(=O)c2ccc3c(c2)CCCN3C(=O)C2CCC2)CC1 -3.21%
CCC12CN3CC(C)(CN(C1)C3c1ccc(O)cc1O)C2=O (stereo unspecified) -6.07%
